The RNAGym collection of RNA variant scans (doi:10.1093/nar/gkz1192)
The source gives no read counts; variants with many changes may rest on few reads.

B1: CPEB3 Ribozyme (parent)
chain: UAACAGGGGGCCACAGCAGAAGCGUUCACGUCGCAGCCCCUGUCAGAUUCUGGUGAAUCUGCGAAUUCUGCUGUAUAUCUC

Variants of: B1
Assay: self-cleavage, relative activity (ratio to wild type); higher = more cleavage; in vitro, sequencing
How it was run: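 CPEB3 self-cleaving ribozyme mutant libraries were made by rounds of error-prone PCR, barcoded, and transcribed in vitro with T7 RNA polymerase for 5 hours at 37°C. Cleavage occurred during transcription and a 15 min DNase I step before EDTA stop. RNAs were reverse transcribed with template switching and Illumina-sequenced, with DNA sequencing mapping barcodes to variants. Relative activity is the variant's cleaved/total read fraction divided by wild type's (minimum 5 reads), averaged across three batches.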

**Q.** Which self-cleavage does the source give for UAACAGGGGGCCACAGCAGAAGCGUUCAGGUCGCAGCCCCUGUCAGAUUCUGGUGGAUCUGCGAGUUCUGCUGUAUAUCUC [C29G A56G A65G] here?
**A.** 0.08

**Q.** For UAACAGGGGGCCACAGCAGAAGCGUUCUCGUCGCAGCCCCUGCCAGGUUCUGGUGAAUCUGCGAAUUCUGCUGUAUAUCUC [A28U U43C A47G], which self-cleavage is on record?
**A.** 0.31

**Q.** Which self-cleavage does the source give for UAACAGGGGGCCACAGCAGAAGCGUUCAGGUCGCAGCCCCUGUCAGACUCUGGUGAUUCUGCGUAUUCCGCUGCAUAUCAC [C29G U48C A57U A64U U69C U74C U80A] here?
**A.** 0.05

**Q.** For UAACAGGGGGCCACAGCAGAAGCGUUCUCGUCGCAGCCCCUGUCAGAUCCUGGUGAAUCUGCGAAUUCUGCAGUAUAUCUC [A28U U49C U72A], which self-cleavage is on record?
**A.** 0.14

**Q.** With UAACAGGGGGCCACAGCAGAAGCGUUCUCGUCGCAGCCCCUGUCAGACUCUGAUGAAUCUGCGAAUCCAGCUGUAUACCUC [A28U U48C G53A U67C U69A U78C] as the variant, how does the self-cleavage read?
**A.** 0.28

**Q.** With UAACAGGGGGCCACAGCAGAAGCGUUCAUGUCGCGGCCCCUGUCUGAUUCCGGUGAAUCUGCGAAUUCCGCUGUAUAUCUC [C29U A35G A45U U51C U69C] as the variant, how does the self-cleavage read?
**A.** 0.19

**Q.** With UAACAGGGGGCCACAGCAGAAGCGUUCUCGUCGCAGCCCCUGUCAGAUUCUGGUGAAUCUGCGAAUUCUGCAGUAUAUCCC [A28U U72A U80C] as the variant, how does the self-cleavage read?
**A.** 1.18

**Q.** For UAACAGGGGGCCACAGCAGAAGCGUUCAGGUCGCAGCCCCUGUCAGAUUCUGGUGAAUCUGUGAAUUCCGCUGUAUAUCUC [C29G C62U U69C], which self-cleavage is on record?
**A.** 0.09

**Q.** For UAACAGGGGGCCACAGCAGAAGCGUUCAUGUCGCAGCCCCUGUCAGAUUCUGGUGAAUCUGCGAGUUCUGCUGUAUACCUC [C29U A65G U78C], which self-cleavage is on record?
**A.** 0.08

**Q.** Which self-cleavage does the source give for UAACAGGGGGCCACAGCAGAAGCGUUCUCGUCGCAGCCCCCGUCAGAUUCUGGUGAAUCCGCGAAUUCUGCUGUAUAUCUC [A28U U41C U60C] here?
**A.** 0.33

**Q.** Which self-cleavage does the source give for UAACAGGGGGCCACAGCAGAAGCGUUCUCGUCGCAGCCCCAGUCAGAUUCAGGUGGAUCUGCGAAUUCUGCUGUAUAUCUC [A28U U41A U51A A56G] here?
**A.** 0.37

**Q.** Which self-cleavage does the source give for UAACAGGGGGCCACAGCAGAAGCGUUCUCGCCGCAGCCCCUGUCAGAUUCUGGUGAAUCUGUGAAUUCUGCUGUAUAACCC [A28U U31C C62U U78A U80C] here?
**A.** 0.06

**Q.** With UAACAGGGGGCCACAGCAGAAGCGUUCAGGUCGCAGCCCCUGUCAGAUUUUGGUGAAUCUGCGUUUUCCGCUGUAUAUCUC [C29G C50U A64U A65U U69C] as the variant, how does the self-cleavage read?
**A.** 0.13

**Q.** For UAACAGGGGGCCACAGCAGAAGCGUUCAUGUCGCAGCCCCUGUCAGGUUCUGGCGAAUCUGCGAAUUCUGCUGUAUAUCUC [C29U A47G U54C], which self-cleavage is on record?
**A.** 0.41

**Q.** For UAACAGGGGGCCACAGCAGAAGCGUUCAUGUCGCAGCCCCUGUCAGGUCCUGGUGAAUCCGCGAAUUCUGCUGUAUAUCUC [C29U A47G U49C U60C], which self-cleavage is on record?
**A.** 0.16

**Q.** For UAACAGGGGGCCACAGCAGAAGCGUUCAUGUCGUAGCCCCUGUCAGAUUCUGGUGGAUCCGCGAAUUCUGCAGUAUAUCUC [C29U C34U A56G U60C U72A], which self-cleavage is on record?
**A.** 0.04

**Q.** Which self-cleavage does the source give for UAACAGGGGGCCACAGCAGAAGCGUUCAUGUCGCAGCCCCUGUCAGAUUCUGGUGAAUCUGCGCAUUCUGCAGUAUAUCUC [C29U A64C U72A] here?
**A.** 0.07

**Q.** For UAACAGGGGGCCACAGCAGAAGCGUUCAUGUCGCGGCCUCUGUCAGAUUCUGGUGAAUCCGCGAAUUCUGCAGUAUAUCUC [C29U A35G C39U U60C U72A], which self-cleavage is on record?
**A.** 0

**Q.** For UAACAGGGGGCCACAGCAGAAGCGUUCUCGUCGCAGCCCCCGUCAGAUCCUGGUGAAUCUGCGAAUUCUGCUGUAUAUCUC [A28U U41C U49C], which self-cleavage is on record?
**A.** 0.24

**Q.** For UAACAGGGGGCCACAGCAGAAGCGUUCUCGUCGCAGCCCCCGUCGGAUUCUGGUGAAUCUGCGAAUUCUGCUGUAUAUCUC [A28U U41C A45G], which self-cleavage is on record?
**A.** 0.28

**Q.** Which self-cleavage does the source give for UAACAGGGGGCCACAGCAGAAGCGUUCUCGUCGCAGCCCCUGUCAGAUUCUGGUGAAUCUGCGAAUCCUGCUGUAUAACUC [A28U U67C U78A] here?
**A.** 0.45

**Q.** For UAACAGGGGGCCACAGCAGAAGCGUUCUCGUCGCAGCCCCCGUCAGAUUCUGGAGAAUCUGAGAAUUCUGCUGUAUAUCUC [A28U U41C U54A C62A], which self-cleavage is on record?
**A.** 0.11

**Q.** For UAACAGGGGGCCACAGCAGAAGCGUUCUCGUCGCAGCCCCUGUCAGAUCCAGGUGAAUCGGCGAAUUCAGCUGUAUAUCUC [A28U U49C U51A U60G U69A], which self-cleavage is on record?
**A.** 0.12

**Q.** Which self-cleavage does the source give for UAACAGGGGGCCACAGCAGAAGCGUUCUCGUCGCAGCCCCUGUCAGAUACUGGUGAAUCCGCGAAUUCUGCUGUAUAUCUC [A28U U49A U60C] here?
**A.** 0.31

**Q.** Which self-cleavage does the source give for UAACAGGGGGCCACAGCAGAAGCGUUCUCGUCGCAGCCCCUGCCAGGUUCCGGUGGAUCUGCGAAUUCCGCUGUAUAUCUC [A28U U43C A47G U51C A56G U69C] here?
**A.** 0.03

**Q.** With UAACAGGGGGCCACAGCAGAAGCGUUCUCGUCGCAGCCCCUGUCAGAUUCUGGUGAAUCUGCGAAUUCUGCUGUAGACCUC [A28U U76G U78C] as the variant, how does the self-cleavage read?
**A.** 0.4

**Q.** With UAACAGGGGGCCACAGCAGAAGCGUUCAUGUCGCAGCCUCUGUCAGAUUCUGGUGAAGCUGCGUAUUCUGCUGUAUAUCUC [C29U C39U U58G A64U] as the variant, how does the self-cleavage read?
**A.** 0.08

**Q.** For UAACAGGGGGCCACAGCAGAAGCGUUCUCGCCGCAGCCCCCGUCAGAUUCUGGUGAAUCUGCGAAUCCUGCCGUAUAUCCC [A28U U31C U41C U67C U72C U80C], which self-cleavage is on record?
**A.** 0.1

**Q.** Which self-cleavage does the source give for UAACAGGGGGCCACAGCAGAAGCGUUCUCGUCGCAGCCCCUGUCAGAUUCUGGUGAAUCUGCGAAUACAGCUGUAAAUCUC [A28U U67A U69A U76A] here?
**A.** 0.19

**Q.** For UAACAGGGGGCCACAGCAGAAGCGUUCUCGUCGCAGCCCCUGUCAGAUUCUGGCGAAUCUGCGAAUCCUGCUGUAUAUCUC [A28U U54C U67C], which self-cleavage is on record?
**A.** 0.15

**Q.** Which self-cleavage does the source give for UAACAGGGGGCCACAGCAGAAGCGUUCAAGUCGCAGCCCCUGUCAGAUUCUGGUGAACCUGCGAAUUCUGCUGUACAUCUC [C29A U58C U76C] here?
**A.** 0.18

**Q.** For UAACAGGGGGCCACAGCAGAAGCGUUCAUGUCGCAGCCCCUGUCGGAUUCUGGUGAAUCUGCGAUUUCUGCUGUAUAUCUC [C29U A45G A65U], which self-cleavage is on record?
**A.** 0.24

**Q.** For UAACAGGGGGCCACAGCAGAAGCGUUCAGGUCGCAGGCCCUGUCAGAUUCUGGUGAAUCUGCGAAUUCUGCUGUAUAUCUU [C29G C37G C81U], which self-cleavage is on record?
**A.** 0.15

**Q.** For UAACAGGGGGCCACAGCAGAAGCGUUCUCGUCGCAGCCCCCGUCAGAUUCUGGUGAAUCUGCUAAUUCUGCUGUAUAUCUC [A28U U41C G63U], which self-cleavage is on record?
**A.** 0.93
